Measured values taken from article PMC9724675.
No constants are given. Whether binding was seen depends on the method and setting. Binding seen in cells or lysates may run through a third protein. Some binding calls cover weakened binding; strength is not graded here. Sequences can lack the tags named with a protein.

How the values were obtained:
[1] = target: T1, POPDC1-VN and POPDC1-VC (mouse POPDC1 fused to a half of Venus) (mouse) (UniProt Q9ES83); assay: split reporter; BiFC (split Venus, VN and VC) in HEK293 cells, which express endogenous POPDC1 and POPDC2; plate reader and live-cell imaging; with or without ISO (10 μM, 10 min, 37°C; dose-response)
T1 sequence: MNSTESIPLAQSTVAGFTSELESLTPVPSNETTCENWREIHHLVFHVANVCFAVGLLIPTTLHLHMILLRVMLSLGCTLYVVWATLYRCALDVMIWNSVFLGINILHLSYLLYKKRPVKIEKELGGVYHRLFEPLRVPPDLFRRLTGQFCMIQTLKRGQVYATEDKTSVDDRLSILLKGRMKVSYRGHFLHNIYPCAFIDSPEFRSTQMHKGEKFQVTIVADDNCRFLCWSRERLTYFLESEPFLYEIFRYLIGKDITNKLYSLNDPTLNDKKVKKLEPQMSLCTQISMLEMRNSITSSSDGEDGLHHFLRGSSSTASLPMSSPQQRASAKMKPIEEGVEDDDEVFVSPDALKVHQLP

[2] = target: T1, POPDC1-VN and POPDC1-VC (mouse POPDC1 fused to a half of Venus) (mouse); assay: split reporter; BiFC (split Venus, VN and VC) in COS-7 cells, which lack detectable endogenous POPDC proteins; plate reader, normalised to DAPI
[3] = target: T2, POPDC3 fused to a half of Venus (BiFC construct) (mouse) (UniProt Q9ES81); assay: as above
T2 sequence: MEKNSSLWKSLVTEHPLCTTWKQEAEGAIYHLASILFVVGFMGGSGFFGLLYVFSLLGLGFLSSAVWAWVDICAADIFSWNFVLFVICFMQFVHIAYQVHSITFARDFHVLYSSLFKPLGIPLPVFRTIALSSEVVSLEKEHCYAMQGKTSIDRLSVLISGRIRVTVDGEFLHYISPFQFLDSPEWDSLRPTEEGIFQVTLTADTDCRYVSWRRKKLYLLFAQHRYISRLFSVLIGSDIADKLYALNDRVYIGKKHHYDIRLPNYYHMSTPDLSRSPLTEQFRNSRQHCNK

[4] = target: T3, POPDC2 fused to a half of Venus (BiFC construct) (mouse) (UniProt Q9ES82); assay: as above
T3 sequence: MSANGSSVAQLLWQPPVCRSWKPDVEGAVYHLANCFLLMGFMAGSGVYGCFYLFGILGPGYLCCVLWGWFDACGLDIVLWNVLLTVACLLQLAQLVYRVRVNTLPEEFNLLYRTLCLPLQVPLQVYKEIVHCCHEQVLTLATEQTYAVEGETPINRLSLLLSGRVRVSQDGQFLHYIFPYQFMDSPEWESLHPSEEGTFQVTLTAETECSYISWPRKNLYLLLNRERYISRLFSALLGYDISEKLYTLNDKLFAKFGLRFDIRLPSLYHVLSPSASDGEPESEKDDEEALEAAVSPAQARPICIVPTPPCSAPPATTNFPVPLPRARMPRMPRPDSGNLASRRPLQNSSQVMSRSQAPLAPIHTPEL

binding [1]: binds
binding [2]: binds
binding [3]: binds
binding [4]: binds
B1: AC9-VN and AC9-VC (AC9 fused to the N-terminal or C-terminal half of Venus) (enzyme, UniProt O60503 1-1353)
chain: MASPPHQQLLHHHSTEVSCDSSGDSNSVRVKINPKQLSSNSHPKHCKYSISSSCSSSGDSGGVPRRVGGGGRLRRQKKLPQLFERASSRWWDPKFDSVNLEEACLERCFPQTQRRFRYALFYIGFACLLWSIYFAVHMRSRLIVMVAPALCFLLVCVGFFLFTFTKLYARHYAWTSLALTLLVFALTLAAQFQVLTPVSGRGDSSNLTATARPTDTCLSQVGSFSMCIEVLFLLYTVMHLPLYLSLCLGVAYSVLFETFGYHFRDEACFPSPGAGALHWELLSRGLLHGCIHAIGVHLFVMSQVRSRSTFLKVGQSIMHGKDLEVEKALKERMIHSVMPRIIADDLMKQGDEESENSVKRHATSSPKNRKKKSSIQKAPIAFRPFKMQQIEEVSILFADIVGFTKMSANKSAHALVGLLNDLFGRFDRLCEETKCEKISTLGDCYYCVAGCPEPRADHAYCCIEMGLGMIKAIEQFCQEKKEMVNMRVGVHTGTVLCGILGMRRFKFDVWSNDVNLANLMEQLGVAGKVHISEATAKYLDDRYEMEDGKVIERLGQSVVADQLKGLKTYLISGQRAKESRCSCAEALLSGFEVIDGSQVSSGPRGQGTASSGNVSDLAQTVKTFDNLKTCPSCGITFAPKSEAGAEGGAPQNGCQDEHKNSTKASGGPNPKTQNGLLSPPQEEKLTNSQTSLCEILQEKGRWAGVSLDQSALLPLRFKNIREKTDAHFVDVIKEDSLMKDYFFKPPINQFSLNFLDQELERSYRTSYQEEVIKNSPVKTFASPTFSSLLDVFLSTTVFLTLSTTCFLKYEAATVPPPPAALAVFSAALLLEVLSLAVSIRMVFFLEDVMACTKRLLEWIAGWLPRHCIGAILVSLPALAVYSHVTSEYETNIHFPVFTGSAALIAVVHYCNFCQLSSWMRSSLATVVGAGPLLLLYVSLCPDSSVLTSPLDAVQNFSSERNPCNSSVPRDLRRPASLIGQEVVLVFFLLLLLVWFLNREFEVSYRLHYHGDVEADLHRTKIQSMRDQADWLLRNIIPYHVAEQLKVSQTYSKNHDSGGVIFASIVNFSEFYEENYEGGKECYRVLNELIGDFDELLSKPDYSSIEKIKTIGATYMAASGLNTAQAQDGSHPQEHLQILFEFAKEMMRVVDDFNNNMLWFNFKLRVGFNHGPLTAGVIGTTKLLYDIWGDTVNIASRMDTTGVECRIQVSEESYRVLSKMGYDFDYRGTVNVKGKGQMKTYLYPKCTDHRVIPQHQLSISPDIRVQVDGSIGRSPTDEIANLVPSVQYVDKTSLGSDSSTQAKDAHLSPKRPWKEPVKAEERGRFGKAIEKDDCDETGIEEANELTKLNVSKSV
